PubChem BioAssay (NCI)
Where “and” joins values, the source holds several entries; their conditions need not be identical. Equal entries are not always repeated.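 Assay format: 96-well plates, 48-hour exposure. GI50 is the concentration that inhibits growth by half. At the TGI there is no net growth.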

What follows are molecules tested on NCI-H322M lung (assay: NCI-60 cell line screen, 48 h).

Row | SMILES | TGI | GI50
1 | CC(C)C1NC(=O)CC(c2ccccc2)N(N=O)C1c1ccccc1 (centres undefined) | > 100 µM | –
2 | CCCCc1ccc(Nc2nc(OC)c3ncn(C4CC(O)C(CO)O4)c3n2)cc1 (centres undefined) | 31.1 µM | –
3 | Clc1ccc(CCN[C@H]2CCCC[C@H]2N2CCCC2)cc1Cl | 50.3 µM | –
4 | Cc1cc2c(-c3nc4ccccn4c3N)c(O)c(O)cc2c(O)c1-c1c(C)cc2c(-c3nc4ccccn4c3N)c(O)c(O)cc2c1O | > 25 µM | 1.57 µM
5 | CC(=O)[CH-]C(=O)c1ccccc1.CC(=O)[CH-]C(=O)c1ccccc1.O=S(=O)([O-])c1cc([O-])c2c([O-])cc(S(=O)(=O)[O-])cc2c1.[Na+].[Zr+4] | > 100 µM | > 100 µM
6 | COc1ccc(-c2c3c(n(C4OC(CO)C(O)C(O)C4O)c(=S)c2C#N)CCCC3)cc1 (centres undefined) | > 100 µM | –
7 | COC(=O)[C@@H]1Cc2c([nH]c3ccccc23)[C@H](c2ccccc2)N1 | > 100 µM | –
8 | O=C1CCc2ccc(O)c(c2)Oc2ccc(cc2)C(Sc2ccccc2)CCO1 (centres undefined) | 28.3 µM | –
9 | CCOC(=O)c1nc2ccc(C(F)(F)F)cc2nc1NCc1ccc(OC)c(OC)c1 | > 100 µM | –
10 | Nc1ncnc2c1ncn2C1CCC(CP(=O)(O)O)C1 (centres undefined) | > 100 µM | –
11 | C=CC1CN(C(=O)OCC)N(C(=O)OCC)C1CCc1ccccc1 (centres undefined) | > 100 µM | –
12 | CC1(C)CCCC(C)(C2CCC3(C)C2C(O)CC2C4(C)CCC(O)C(C)(C)C4CCC23C)O1 (centres undefined) | > 100 µM | –
13 | O=C(NNC(=S)NC1CCCCC1)C12CC3CC(CC(C3)C1)C2 | > 100 µM | –
14 | CSCSCC(CO)NC(=O)/C(C)=C\c1c(C)[nH]c(=O)[nH]c1=O (centres undefined) | > 250 µM | –
15 | COC(=O)CCNC(=O)OCc1ccccc1 | > 100 µM | –
16 | Cn1c2c(c3ccccc31)CCN1C(=O)CCC21 (centres undefined) | > 10 µM | –
17 | CC(=O)N1N=C(c2ccc(Nc3nc(Nc4ccc(F)cc4)nc(Nc4ccc(F)cc4)n3)cc2)CC1c1ccc(N(C)C)cc1 (centres undefined) | 70 µM | 17.8 µM
18 | COc1ccc(OC)c2c1C=CC(Br)=CC2 | > 1 µM | –
19 | CCN(Cc1cccc(Cl)c1)c1ccc(CO)c(Cl)c1 | 25.5 µM | 11.5 µM
20 | CCN(CC)CCCC(C)N/C(=C1\C(=O)NC(=O)\C1=C(/NC(C)CCCN(CC)CC)c1cccc(OC)c1)c1cccc(OC)c1 (centres undefined) | 1.93 µM | 0.793 µM
21 | COC1OC2COC(C)(C)OC2C(OC(C)=O)C1NC(=O)N(CCCl)N=O (centres undefined) | > 100 µM | –
22 | COC(=O)[C@@]12CC(C(C)C)[C@H]3CC(C(=O)C=C1OC)[C@H]32 (some centres undefined) | > 100 µM | –
23 | COC(=O)c1cc(NC(=O)Cc2c[nH]c3ccccc23)cn1C | > 100 µM | –
24 | COc1cccc(C2SC(N)=Nc3c2c(C)nn3C(=O)Cc2ccccc2)c1 (centres undefined) | > 100 µM | –

Row | SMILES | TGI | GI50
25 | CSc1nc2c(c(=O)n1C)CN(C1CCCCC1)C(=O)C(c1ccccc1)N2 (centres undefined) | > 100 µM | 22.3 µM
26 | COc1cccc(C2c3cc4c(cc3OC(NNS(=O)(=O)c3ccc(C)cc3)C2C)OCO4)c1OC (centres undefined) | 58 µM | –
27 | COC(=O)c1oc2c(C(=O)/C=C/c3ccc(OC)cc3)c(OCCN(C)C)ccc2c1C | 20.9 µM | 7.04 µM
28 | CC(Nc1ccc(Cl)c(Cl)c1)c1ccncc1 (centres undefined) | 8.06 µM | –
29 | CNS(=O)(=O)NNS(=O)(=O)c1ccc(OC)cc1 | > 100 µM | –
30 | COc1cc(C(=O)c2cnc(-c3cccc4[nH]ccc34)[nH]2)cc(OC)c1OC | > 100 µM | 0.0501 µM and < 0.01 µM
31 | Cc1cc(-c2cc(O)ccc2Cl)cc2nnc(Nc3ccc(OCCN4CCCC4)cc3)nc12 | 3.14 µM | 1.74 µM
32 | CCC1(c2ccc(N3C(=O)c4cc(OC)c(OC)cc4C3=O)cc2)CCC(=O)NC1=O (centres undefined) | > 10 µM | –
33 | COc1ccccc1C(O)[C@@H]1C[C@@H]2[C@H]3CC[C@@](C)([C@@H]2O1)C3(C)C (some centres undefined) | 50.5 µM | –
34 | O=C1O/C(=C/c2ccccc2)C(c2ccccc2)=C1O | > 100 µM | –
35 | CC1CCC2CC(=O)OC([C@@H]3C(=O)O[C@@H](C4=CCCC4)C4C(C)CCC43)C12 (some centres undefined) | > 100 µM | –
36 | CC(=O)[C@H]1CCC/C=C/[C@@H]2C[C@H](O)C[C@H]2[C@H](O)/C=C/C(=O)O1 | 40.3 µM | 1.14 µM
37 | N[C@@H]1CCN(c2c(F)cc3c(=O)c(C(=O)O)cn4c3c2Oc2cc3c(ccc5ccccc53)cc2-4)C1 | > 69.7 µM | –
38 | COC(=O)C1=CC2C=CC(C1C(=O)OC)C1C(C(=O)OC)=C(C(=O)OC)C(C(=O)OC)=C(C(=O)OC)C21OC (centres undefined) | > 100 µM | –
39 | COc1c(C(=O)NCCN(CCNC(=O)c2cccc(-c3cccc(C(=O)N(C)C)c3OC)c2OC)CCNC(=O)c2cccc(-c3cccc(C(=O)N(C)C)c3OC)c2OC)cccc1-c1cccc(C(=O)N(C)C)c1OC | > 100 µM | –
40 | CCOC(=O)C(C#N)C1=CC(=O)C(=O)c2ccc(O)cc21 (centres undefined) | > 100 µM | –
41 | COc1nc(N)c(NC(C)=O)c(=O)n1C | > 100 µM | –
42 | CCCSc1ccc2[nH]c(N3C(=O)/C(=C/c4ccc(SC)cc4)N=C3c3ccccc3)cc2c1 | > 50 µM | –
43 | COC(=O)/C=C1/OC(c2ccccc2)=C(C)C1=O | 32.3 µM | –
44 | S=c1ncc2c([nH]1)C1c3ccccc3C2c2ccccc21 | > 100 µM | –
45 | COc1ccc(N=NC(=O)NC(CC(C)C)C(=O)NCC(=O)O)cc1 (centres undefined) | > 100 µM | –
46 | CSc1nc2c(c(=O)n1C)N=C(c1ccc([N+](=O)[O-])cc1)CC(c1ccccc1)N2 (centres undefined) | > 100 µM | –
47 | Cn1c2c(c3c(Cl)nncc31)Cc1ccccc1-2 | > 100 µM | 42.4 µM
48 | CC(C)(Cl)C(Br)CCC(Br)(CCl)C(Cl)CBr (centres undefined) | > 10 µM | –

Row | SMILES | TGI | GI50
49 | CCOc1ccccc1N=Nc1c(-c2ccccc2)nn(C(=O)CC(=O)Nc2cccc(C)c2)c1-c1ccccc1 | > 100 µM | –
50 | COc1ccc([C@@]23Oc4cc(OC)cc(OC)c4[C@]2(O)[C@H](O)[C@H](C(N)=O)[C@H]3c2ccccc2)cc1 | 0.0739 µM and 0.0589 µM | < 0.0121 µM
51 | CC(C)=CCC[C@@H](C)C1=C(O)C(Nc2ccccc2Cl)=C(C)C(=O)C1=O | > 75 µM | –
52 | Cc1cc(Nc2nc(N[C@@H](C)c3ncc(F)cn3)ncc2Cl)n[nH]1 | > 100 µM | 39.1 µM
53 | O=C1NN(Cc2ccccc2)C(=O)N2CCC[C@@H]12 | > 100 µM | –
54 | COc1cc(/C=N/N=C(\N)NO)c(Cl)cc1O | > 100 µM | –
55 | CCCCCC/C=C\CCCCCCCCCC1=C(CN2CCN(C)CC2)C(=O)C=C(OC)C1=O | 27.6 µM | –
56 | C=C1C(=O)O[C@H]2C1C[C@@H](OC(C)=O)/C(C)=C/CC[C@@]1(C)O[C@H]21 (some centres undefined) | 34.9 µM | –
57 | C/C=C1\CN2CCc3c([nH]c4ccccc34)C2CC1CCO (centres undefined) | > 100 µM | –
58 | CCN(CC)CCN(C)c1ccc(CO)c2c1C(=O)c1ccccc1S2=O (centres undefined) | 20.6 µM | –
59 | C/C=C1/CC(C)C(C)(O)C(=O)OCC2C(O)CN3CCC(OC1=O)C23 (centres undefined) | > 100 µM | –
60 | O=[S@]1c2ccc3ccccc3c2N[C@@H]2[C@H]1[C@H]1C=C[C@@H]2C1 | > 100 µM | –
61 | O=c1c(Cl)c(Cl)cnn1CCCl | 22.8 µM | –
62 | Cc1ccc2c(=O)cc(-c3ccc(C)s3)[nH]c2n1 | > 100 µM | –
63 | C#CCN(c1ccc(C(=O)N[C@@H](CCC(=O)N[C@H](CCC(=O)O)C(=O)O)C(=O)O)cc1)C1CCc2cc3nc(CO)[nH]c(=O)c3cc21 (some centres undefined) | > 100 µM | > 100 µM
64 | O=C(/C=C/c1cccc([N+](=O)[O-])c1)c1ccc([N+](=O)[O-])cc1 | > 100 µM | –
65 | CC(C)=CCCC(C)CCOS(=O)C(F)(F)F (centres undefined) | > 100 µM | –
66 | Cc1ccc2nc(C(C)C)c(=O)[nH]c2c1 | > 100 µM | –
67 | COC1(OC)C2(Cl)C(Cl)=C(Cl)C1(Cl)C1C2C2CC1(C(=O)O)c1ccccc12 (centres undefined) | > 100 µM | –
68 | CCOC(=O)/C=C(/C(=O)OCC)n1ccc(=O)n(Cc2cnnn2COCCOC(C)=O)c1=O | > 100 µM | –
69 | Clc1cccc(C2N3CCCCC3[C@@H]3c4[nH]c5ccccc5c4CCN23)c1 (some centres undefined) | > 100 µM | –
70 | C=CCc1c(O)c2nsnc2c2nsnc12 | > 10 µM | –
71 | Cc1cn(Cc2ccc(C34CC5CC(CC(C5)C3)C4)c(O)c2)c(=O)[nH]c1=O | 45.6 µM | 21.2 µM
72 | CCCCCCCCCC[C@H](O)[C@H](O)CC[C@@H](O)[C@H]1CC[C@@H]([C@H]2CC[C@H](CCCCCCC[C@@H](O)CC3=C[C@H](C)OC3=O)O2)O1 | > 100 µM | 30.4 µM

Row | SMILES | TGI | GI50
73 | CCCCCc1c(CCCC)c(=O)[nH]c2nc(NC(=O)CCCC)ccc12 | > 100 µM | –
74 | Cn1cc(-c2cnn3c(N)c(Br)c(C4CCCNC4)nc23)cn1 (centres undefined) | > 100 µM | 13 µM
75 | CCCc1cc(COC)c(C#N)c(=O)[nH]1 | > 100 µM | –
76 | CCOc1ccn(-c2ccc(F)cc2)c(=O)c1C(=O)Nc1ccc(Oc2ccnc(N)c2Cl)c(F)c1 | > 100 µM | 29.4 µM
77 | CC1=CC[C@@]2(C)CC[C@](O)(C(C)C)C2C(OC(=O)c2ccccc2)C1 (some centres undefined) | 38.2 µM | –
78 | CC(=O)OCC1OC(n2c3c(c(-c4ccc(Cl)cc4)c(C#N)c2=S)CCCC3)C(OC(C)=O)C(OC(C)=O)C1OC(C)=O (centres undefined) | > 100 µM | –
79 | CN(C)c1c(C2OC(CO)C(O)C2O)c(=O)c1=O (centres undefined) | > 100 µM | –
80 | CN(/N=C\c1ccnc2ccccc12)c1ccc([N+](=O)[O-])cc1 | > 100 µM | –
81 | Nc1nc(NCCCO)cc(=O)[nH]1 | > 100 µM | –
82 | Cc1c(N=C/C=C/c2ccccc2)c(=O)n(-c2ccccc2)n1C | > 100 µM | –
83 | Cn1c2ccccc2c(=O)c2c(O)cc3c(c21)C=CC(C)(C)O3 | > 25 µM | –
84 | O=C(Nc1ccc(Cl)c(Cl)c1)C(=O)C(C(=O)c1ccccc1-c1ccccc1)C1OC(=O)c2ccccc21 (centres undefined) | 30.3 µM | –
85 | [B-][P+](CC[P+]1([B-])[C@@H](C)[C@@H](O)[C@H](O)[C@@H]1C)(c1ccccc1)c1ccccc1OC (some centres undefined) | 26.6 µM | –
86 | O=C1c2ccccc2C2CCC1c1ccccc12 (centres undefined) | > 100 µM | –
87 | CCOP(=O)(OCC)C(C(=O)OC)C(=O)C(=O)Nc1cccc(O)c1 (centres undefined) | > 100 µM | –
88 | CC(=O)NNc1nc(C)c(C(/C=C/c2ccccc2O)=N/N=C(N)N)s1 | > 100 µM | –
89 | CC(=O)c1cc(C(=O)c2ccc3c(c2)Sc2ccccc2N3)n2ccccc12 | > 33.2 µM | 0.00593 µM and 0.00359 µM
90 | COc1cc(C2c3cc4c(cc3C(OC(=O)C[n+]3ccccc3)C3COC(=O)C23)OCO4)cc(OC)c1OC (centres undefined) | > 100 µM | < 0.024 µM
91 | O=C1c2ccccc2-c2c1c1ccccc1c(=O)n2CCCNCCn1c2c(c3ccccc3c1=O)C(=O)c1ccccc1-2 | 32.4 µM | 17.9 µM
92 | CC(=O)NCC1OC2COC(c3ccccc3)OC2C(NC(=O)c2ccccc2)C1OC(=O)c1ccccc1 (centres undefined) | > 100 µM | –
93 | O=C1/C(=C/c2ccccc2[N+](=O)[O-])N=C(c2ccccc2)N1c1nc2ccccc2s1 | > 100 µM | –
94 | C=CCC(N[C@@H](CO)c1ccccc1)c1cn(C(=O)OCC)c2ccccc12 (some centres undefined) | > 100 µM | 20.4 µM
95 | COc1cc(OC)cc(-c2cc(=O)c3cc4c(cc3[nH]2)OCO4)c1 | 31.9 µM | –
96 | C=CCC(N[C@H](CO)c1ccccc1)c1cn(Cc2ccccc2Cl)c(=O)n(Cc2ccccc2Cl)c1=O (some centres undefined) | > 100 µM | 26.8 µM
